The record followed here is PubChem BioAssay AID1508624 (National Center for Advancing Translational Sciences (NCATS), 2021).

Hit rate of the full screen: of about 48,000 compounds, about 120 (0.25%) were called active. Roughly 4% stayed inconclusive and do not appear here. The call rests on the fitted dose curve; in most records, active means well fitted activation curve with a large enough effect; inconclusive means small, poorly fitted or top-dose-only effect, or another doubt; inactive means no such curve, though single readings can be large or run the other way. The list shows a part of the results.

A short description of the test: Primary qHTS for Identification of Small Molecule Activators of Huntingtin-Antisense Promoter Activity. Further: nearly all actives have a fitted effect of over 55% in size. Conditions: HEK293 HTT-AS promoter firefly luciferase reporter, 24 h; series mostly up to 57.5 µM; activity change, positive = activation: at the top concentration. Put shortly:
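HEK293 Fluc reporter, 2,500 cells/well, 24 h pre-culture; cpds up to 57.5 uM final, 24 h 37 degrees C; Dual-Glo, 10 min RT; normalized vehicle = 0%, zero RLU = -100%.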
As for `Cc1c(C(=O)NCc2ccc(Cl)cc2)sc2nc3n(c(=O)c12)CCCCC3`, the “activity change, positive = activation” value is inactive: -10.9%. The same measure for `COc1ccc(S(=O)Cc2ccc(C(=O)N3CCN(c4cccc(C)c4C)CC3)o2)cc1` (stereo unspecified): inactive: -39.6%; for `CCc1nn2c(-c3ccccc3OC)ccnc2c1-c1ccccc1`: inactive: -18%; for `O=C(Nc1ccc(C(=O)OCc2cc(=O)n3c4c(sc3n2)CCCC4)cc1)c1ccc(F)cc1`: inactive: -4.64%. For the compound `O=C(CCCCn1c(=O)c2ccccc2n(CC(=O)Nc2cccc(C(F)(F)F)c2)c1=O)NCc1ccc2c(c1)OCO2`, the “activity change, positive = activation” value is inactive: -36.5%. Turning to `CCN(CC)S(=O)(=O)c1ccc(C(=O)N2CC(=O)Nc3ccc(F)cc3C2c2ccccc2)cc1` (stereo unspecified), the “activity change, positive = activation” value is inactive: 3.11%.

With `C#C[C@]1(OC(C)=O)CC[C@H]2[C@@H]3CCC4=C[C@@H](OC(C)=O)CC[C@@H]4[C@H]3CC[C@@]21C`, the “activity change, positive = activation” value was inactive: -22.4%. The same measure for `CC(C)(C)OC(=O)N1CCC(c2c(C(=O)NCCc3ccccc3)cnn2-c2ccc(F)cc2)CC1`: inactive: -0.432%. As to `O=C(C1CCN(S(=O)(=O)c2ccc(Br)s2)CC1)N1CCN(c2ccccc2)CC1`, the “activity change, positive = activation” value is inactive: -30.9%. With `COc1ccc(CCN2C(=O)NC(NS(=O)(=O)c3ccc(NC(C)=O)cc3)(C(F)(F)F)C2=O)cc1OC` (stereo unspecified), the “activity change, positive = activation” value was inactive: -5.36%.

As to `CC(=O)Nc1ccc2nc(SCCOc3cc(C)cc(C)c3)sc2c1`, the “activity change, positive = activation” value was inactive: -37.6%. Consider `CC(=O)N1c2ccc(S(=O)(=O)NCC3CCC(C(=O)Nc4cc(C)ccc4C)CC3)cc2CC1C` (stereo unspecified), for which the “activity change, positive = activation” value was inactive: -38.5%. To `COc1cc(NC(=O)c2c(C)oc3c2C2=NCCN2C=N3)cc(OC)c1OC` belongs inactive: 4.26%; to `CCc1ccc(-c2nn(CC(=O)NCc3ccccc3)c3c2cnc2ccc(F)cc23)cc1`, inactive: 25.9%. With `COc1ccc(OCC(=O)NCc2ccc3c(c2)CCN3C(=O)c2ccc(F)cc2)cc1`, the “activity change, positive = activation” value is inactive: -17.7%. As for `COC(=O)c1c(Cl)c(Cl)c(C(=O)OC)c(Cl)c1Cl`, the “activity change, positive = activation” value is inactive: -9.75% [at 116 µM, percent change from vehicle, -100% = no light]. Regarding `COC(=O)c1ccc(OCC2c3cc(OC)c(OC)cc3CCN2C(=O)Cc2ccccc2)cc1` (stereo unspecified), the “activity change, positive = activation” value was inactive: -24.9%.

Regarding `Cn1cnnc1SCC(=O)Nc1ccc(C#N)cc1`, the “activity change, positive = activation” value is inactive: -15.6%. On to `CN(CC(=O)NCc1ccccc1)S(=O)(=O)c1ccc2[nH]c3c(c2c1)CCCC3`, for which the “activity change, positive = activation” value was inactive: -26.9%. Regarding `CCc1ccccc1NC(=O)C1(C)Cc2ccccc2C(=O)O1` (stereo unspecified), the “activity change, positive = activation” value is inactive: -17.6%.

As for `CCN(Cc1ccccc1)S(=O)(=O)c1cc(C(=O)Nc2cc(Cl)cc(Cl)c2)ccc1F`, the “activity change, positive = activation” value is inactive: -45.4%. `COc1ccc(-c2[nH]c(-c3cccc(OC)c3)nc2SCC(=O)NC2CCCC2)cc1`: the “activity change, positive = activation” value is inactive: -20.6%. To `CC(C)(C)C1CCc2c(sc(NC(=O)c3ccc(Cl)cc3)c2C(=O)NCc2ccco2)C1` (stereo unspecified) belongs inactive: -7.41%; to `COc1ccccc1N1CCN(c2ncnc3c2cnn3-c2cccc(Cl)c2)CC1`, inactive: 8.47%; to `COc1ccc(-c2cn3nc(N4CCCC(C(=O)Nc5cc(C)cc(C)c5)C4)sc3n2)cc1` (stereo unspecified), inactive: 11%.

On to `Cc1ccc(Cn2c(CN3CCC(C(=O)NCCc4ccccc4)CC3)cc3ccccc32)cc1`, for which the “activity change, positive = activation” value is inactive: -14.9%.

With `N#Cc1ccc(C(=O)Nc2ccc3c(c2)N(C2CCCC2)C(=O)c2ccccc2S3)cc1`, the “activity change, positive = activation” value is inactive: -27.5%.

With `CC(C)Sc1ncc(Cl)c(C(=O)N(Cc2ccc(N(C)C)cc2)C2CCS(=O)(=O)C2)n1` (stereo unspecified), the “activity change, positive = activation” value is inactive: 0%.

Turning to `CCc1nn(CC(=O)Nc2ccc(N(CC)CC)cc2C)c(=O)c2cc3sccc3n12`, the “activity change, positive = activation” value was inactive: -6.22%. As for `O=C(NCCc1nc2ccccc2n1Cc1ccc(Cl)cc1Cl)c1ccco1`, the “activity change, positive = activation” value is inactive: -41.1%. The same measure for `CCn1ccc2c(OCC(=O)NCc3ccc(F)cc3)cccc2c1=O`: inactive: -11.2%; for `CC(C)Cn1c(=O)c2ccccc2n2c(CCC(=O)NC(C)c3ccccc3)nnc12` (stereo unspecified): inactive: -10%; for `CCOc1ccc(C2C(C(=O)Nc3ccccc3)=C(C)Nc3nc(SCc4cc(C)ccc4C)nn32)cc1` (stereo unspecified): inactive: 0%. Consider `Cc1cc(C)c2nc(N(Cc3cccnc3)C(=O)c3cccs3)sc2c1`, for which the “activity change, positive = activation” value is inactive: -14.4%. In the case of `Oc1cc(-c2nc(-c3ccccc3)[nH]c2-c2ccncc2)ccc1Cl`, the “activity change, positive = activation” value was inactive: -24.7%. For the compound `CN(C)c1ccc(/C=C(\C#N)c2nc(-c3ccc(Cl)c(Cl)c3)cs2)cc1`, the “activity change, positive = activation” value is inactive: -5.06%. For the compound `COc1cc(NC(=O)COCc2cc(-c3ccc4c(c3)OCO4)on2)cc(OC)c1`, the “activity change, positive = activation” value is inactive: -7.12%. With `COC(=O)c1cc(S(N)(=O)=O)ccc1OC`, the “activity change, positive = activation” value is inactive: 0.103%.

As to `Cc1ccc(-n2c(=O)c3c(cnn3C)n(Cc3ccccc3F)c2=O)cc1`, the “activity change, positive = activation” value is inactive: -31.4%.

Turning to `Cn1c2ccccc2c2cnn(CC(=O)Nc3ccccc3C(F)(F)F)c(=O)c21`, the “activity change, positive = activation” value is inactive: -11.2%. As for `CCn1cc(S(=O)(=O)c2ccccc2)c(=O)c2cc(F)c(N3CCN(c4ccccc4)CC3)cc21`, the “activity change, positive = activation” value is inactive: -15.8%. For `CCN(CC)C(=O)c1sc2c(c1C)c(=O)n(-c1ccc(OC)cc1OC)c(=O)n2CC(=O)c1ccc(Cl)cc1`, the “activity change, positive = activation” value is inactive: -10.6%.

Turning to `CCOc1ccc(N(C(C)C(=O)Nc2cc(Cl)ccc2OC)S(C)(=O)=O)cc1` (stereo unspecified), the “activity change, positive = activation” value was inactive: -36.6%. As to `COc1cc(NC(=O)c2oc3c(c2C)-c2nn(Cc4cccc(Cl)c4)cc2CC3)cc(OC)c1`, the “activity change, positive = activation” value is inactive: 14.1%. `O=C(Nc1ccc(OC(F)(F)F)cc1)C1CCN(S(=O)(=O)c2cccs2)CC1`: the “activity change, positive = activation” value was inactive: -56.7%. To `CCN(CC)CCNC(=O)Nc1ccc2c(c1)N(Cc1ccccc1)C(=O)c1ccccc1S2` belongs inactive: -19.9%.
